Experimental data as given in PubChem BioAssay AID504845 (National Center for Advancing Translational Sciences (NCATS), 2011).
Hit rate of the full screen: of about 390,000 compounds, about 150 (0.038%) were called active. The inconclusive results got no clear call from the source; some entries with a clear call stand among them for comparison. Calls follow the shape of the dose curve; as a rule, active = well fitted inhibition curve with a large enough effect; inconclusive = small, poorly fitted or top-dose-only effect; inactive = no such curve, though single readings can be large or run the other way. A potency beside an inconclusive call is a rough fit, not a confirmed value.

biological target: Regulator of G-protein signaling 4 (Homo sapiens) (UniProt P49798); experiment: Inhibitors of Regulator of G Protein Signaling (RGS) 4: qHTS; settings: Transcreener GDP fluorescence polarization, RGS4-accelerated GTP hydrolysis; series mostly up to 114 µM; also: nearly all actives have a fitted effect of over 75% in size
UniProt P49798, sequence (P49798 whole entry, looked up): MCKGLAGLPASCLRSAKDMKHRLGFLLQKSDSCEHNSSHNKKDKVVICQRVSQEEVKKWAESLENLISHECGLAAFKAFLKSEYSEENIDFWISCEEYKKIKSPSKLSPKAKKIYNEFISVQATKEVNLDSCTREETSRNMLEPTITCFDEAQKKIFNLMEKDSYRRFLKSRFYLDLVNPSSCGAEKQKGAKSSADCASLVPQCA
Outline: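 MLSMR compounds (23 nl, pin-transferred) preincubated 10 min at room temperature with a 500nM (2x) first reagent, then RGS4 at 900nM (2x) plus Transcreener GDP mix added; fluorescence polarization (620/688 nm) read before and after 90 min at 30 °C.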
% is scaled to controls: 0 for no effect and ±100 for the full control effect; potency is read from the fitted curve at half-maximal effect; tags tell the direction and shape of the fitted curve.

| Compound | Potency | activity change, negative = inhibition |
| --- | --- | --- |
| Cc1cc(C)n(CCN(C)c2nc3nonc3nc2N2CCCCC2)n1 | inconclusive: 79.4 µM [inhibitor, partial curve, poor fit] |  |
| CCOC(=O)CSc1nc(N2CCOCC2)c2c(c1C#N)CC(C)(C)N(C)C2 | inconclusive: 79.4 µM [inhibitor, single point] |  |
| CCOC(=O)C(C)Sc1nnc(Cc2cc(=O)[nH]c(=O)[nH]2)n1-c1ccc(Cl)cc1 (stereo not drawn) | inconclusive: 50.1 µM [inhibitor, partial curve, poor fit] |  |
| COc1ccc(-c2[nH]ncc2/C=N\NC(=O)c2ccc(C(C)(C)C)cc2)cc1OC | inconclusive: 50.1 µM [inhibitor, partial curve, poor fit] |  |
| Cc1cc(NC(=O)COC(=O)c2oc3c(ccc4ccccc43)c2C)no1 | inconclusive: 17.8 µM [inhibitor, full curve, poor fit] |  |
| Cc1ccc(Nc2nnc(SCn3nnc4ccccc4c3=O)s2)cc1 | inconclusive: 79.4 µM [inhibitor, partial curve, poor fit] |  |
| CCOC(=O)c1c(-c2ccccc2)csc1NC(=O)c1cc(-c2cccc(OC)c2)on1 | inconclusive: 28.2 µM [inhibitor, full curve, poor fit] |  |
| O=C(NCCCN1CCN(C2CCCCC2)CC1)Nc1ccccc1C(F)(F)F | inconclusive: 100 µM [inhibitor, single point] |  |
| Cc1ccc(C(NC(=O)N2CCCCC2)=C(Cl)Cl)cc1F | inconclusive: 100 µM [inhibitor, single point] |  |
| COc1ccc(C2Nc3ccccc3NC3=C2C(=O)CC(C)(C)C3)cc1O (stereo not drawn) | inconclusive: 20 µM [inhibitor, full curve, poor fit] |  |
| COc1ccccc1N1C(=O)C2C(c3ccccc3F)NN(C(=O)c3ccc(C)cc3)C2C1=O (stereo not drawn) | inactive |  |
| CCCCNC(=S)N/N=C/c1ccc(C)s1 | inconclusive: 79.4 µM [inhibitor, partial curve, poor fit] |  |
| CCC1(O)CCCC2C3CCC4CC(=O)CCC4(C)C3C(=O)CC21C (stereo not drawn) | inconclusive: 100 µM [inhibitor, single point] |  |
| COc1ccc(N2CCN(S(=O)(=O)CCNC(=O)Cc3ccc(-c4ccccc4)cc3)CC2)cc1 | inactive |  |
| CC(C)(C)n1nnnc1C(c1ccncc1)N1CCN(c2ccc(O)cc2)CC1 (stereo not drawn) | inconclusive: 50.1 µM [inhibitor, partial curve, poor fit] |  |
| CCOc1cc(CNC(=O)C(NS(=O)(=O)c2cccs2)C(C)C)cc(OCC)c1OCC (stereo not drawn) | inactive |  |
| Cc1ccc(C(=O)Nc2ccccc2N2CCCCC2)o1 | inactive |  |
| CCOC(=O)c1cccc(NC(=O)C2CCN(c3nnc(C)c4c(C)n(-c5ccccc5)nc34)CC2)c1 | inactive |  |
| Cc1cccc(N2CCN(C(=O)NCc3ccc(F)cc3)CC2)c1C | inconclusive: 50.1 µM [inhibitor, partial curve, poor fit] |  |
| CN(C)C(=S)Nc1ccc2c(c1)OCO2 | inconclusive: 50.1 µM [inhibitor, partial curve, poor fit] |  |
| CCCC1(c2ccccc2)NC(=O)N(CC(=O)N(C)Cc2c(F)cccc2Cl)C1=O (stereo not drawn) | inconclusive: 39.8 µM [inhibitor, full curve, poor fit] |  |

| Compound | Potency | activity change, negative = inhibition |
| --- | --- | --- |
| O=C(O)CSCC(=O)N1CCCCC1 | inconclusive: 44.7 µM [inhibitor, partial curve, poor fit] |  |
| COc1ccc(NC(=O)c2c(NCc3ccc(C)o3)sc3c2CCCCC3)c(OC)c1 | inconclusive: 50.1 µM [inhibitor, partial curve, poor fit] |  |
| COc1ccc(CCNC(=O)COC(=O)CCC(=O)c2ccc(F)cc2)cc1OC | inactive |  |
| CCOC(=O)C1CCCN(C2CC(=O)N(c3cccc(C(F)(F)F)c3)C2=O)C1 (stereo not drawn) | inconclusive: 70.8 µM [inhibitor, partial curve, poor fit] |  |
| COCc1nn2c(N)c(-c3ccccc3)cnc2c1-c1ccccc1 | inactive |  |
| O=C1CC(N2CCOCC2)C(=O)N1Cc1ccc(N2CCCC2=O)cc1 (stereo not drawn) | inactive |  |
| O=C(NCC1CCCO1)c1ccc2c(c1)N(Cc1ccccc1)C(=O)CS2=O (stereo not drawn) | inconclusive: 28.2 µM [inhibitor, full curve, poor fit] |  |
| COc1cccc(/C=C2/Sc3ccc(C(=O)NCCN4CCCCCC4)cc3NC2=O)c1 | inconclusive: 44.7 µM [inhibitor, partial curve, poor fit] |  |
| Cc1ncc(N=Nc2ccccc2Cl)c(-c2ccccc2)n1 | inconclusive: 89.1 µM [inhibitor, single point] |  |
| CCC(C)C(=O)Nc1nnc(-c2cccs2)s1 (stereo not drawn) | inconclusive: 79.4 µM [inhibitor, single point] |  |
| Cc1ccc(-c2cc(C(=O)NCc3ccco3)c3ccccc3n2)s1 | inconclusive: 56.2 µM [inhibitor, partial curve, poor fit] |  |
| CCN1CCN(c2nc(C)nc3c2sc(=S)n3C)CC1 | inconclusive: 39.8 µM [inhibitor, partial curve, poor fit] |  |
| CCOC(=O)c1ccc(OS(=O)(=O)c2ccccc2)c(OC)c1 | inconclusive: 89.1 µM [inhibitor, partial curve, poor fit] |  |
| O=C(NN=C1CCCCCC1)c1cc(-c2ccccc2)nc2ccccc12 |  | inactive: -75.4% [at 11.4 µM] |
| Cc1ccc2c(c1)N(CC(=O)Nc1ccccc1C(F)(F)F)C(=O)c1cccnc1O2 | inactive |  |
| COc1ccc(-c2cc(C)no2)cc1S(=O)(=O)N1CCN(c2cccc(C)c2)C(C)C1 (stereo not drawn) | inactive |  |
| Cc1cccc(C2c3[nH]c4ccccc4c3CCN2C(=O)c2nn(C)c(=O)c3ccccc23)n1 (stereo not drawn) | inconclusive: 31.6 µM [inhibitor, full curve, poor fit] |  |
| COc1ccc(C(=O)CC(=O)c2ccc(C(C)(C)C)cc2)cc1 | inactive |  |
| COc1ccc(OC)c(NC(=O)c2c(NCc3cccs3)sc3c2CCCCC3)c1 | inconclusive: 50.1 µM [inhibitor, partial curve, poor fit] |  |
| COc1cccc(C(=O)NNC(=O)CCc2ccccc2)c1 | inconclusive: 50.1 µM [inhibitor, partial curve, poor fit] |  |
| O=c1[nH]c(C2CCN(S(=O)(=O)c3ccccc3)CC2)nc2c1nnn2Cc1c(F)cccc1Cl | inconclusive: 79.4 µM [inhibitor, partial curve, poor fit] |  |

| Compound | Potency | activity change, negative = inhibition |
| --- | --- | --- |
| Cc1cc(NC(=O)c2cncc(Br)c2)ccc1NC(=O)c1cc2ccccc2o1 | inconclusive: 31.6 µM [inhibitor, full curve, poor fit] |  |
| O=C(Cn1c(=O)n(Cc2ccco2)c(=O)c2c3c(sc21)CCCCC3)c1ccccc1 | inconclusive: 44.7 µM [inhibitor, partial curve, poor fit] |  |
| N/C(Cn1cncn1)=N\OC(=O)c1ccc(Cl)cc1 | inconclusive: 70.8 µM [inhibitor, partial curve, poor fit] |  |
| CC(=O)c1cccc(OCc2cc(C(=O)N(C)Cc3ccc(C)o3)no2)c1 | inconclusive: 20 µM [inhibitor, full curve, poor fit] |  |
| CCn1c(=O)c(C(=O)CN2CCN(S(=O)(=O)c3cc(C)ccc3C)CC2)c(N)n(Cc2ccccc2)c1=O | inconclusive: 56.2 µM [inhibitor, partial curve, poor fit] |  |
| CCC(c1ccccc1)C(CC)c1cc(O)c(O)c(O)c1 (stereo not drawn) | inconclusive: 39.8 µM [inhibitor, partial curve, poor fit] |  |
| CCN(c1ccccc1)S(=O)(=O)c1cccc(C(=O)NCc2cccnc2)c1 | inactive |  |
| O=C(NN=Cc1ccccc1O)c1cccc([N+](=O)[O-])c1 | inactive |  |
| O=C1Nc2ccccc2/C1=N/N=C/c1ccc(-c2ccc([N+](=O)[O-])cc2)o1 | inconclusive: 100 µM [inhibitor, partial curve, poor fit] |  |
| O=[N+]([O-])c1ccc(C(O)CN2CCOCC2)cc1 (stereo not drawn) | inactive |  |
| O=C1CSc2ccc(C(=O)Nc3cccc(S(=O)(=O)Nc4ccc(Br)cc4)c3)cc2N1 | inconclusive: 50.1 µM [inhibitor, partial curve, poor fit] |  |
| C=CCNc1nc(Nc2ccc([N+](=O)[O-])cc2)nc(N2CCCC2)n1 | inconclusive: 44.7 µM [inhibitor, partial curve, poor fit] |  |
| CCOc1ccc(Cl)cc1C(c1c(C)[nH][nH]c1=O)c1c(C)[nH][nH]c1=O | inconclusive: 44.7 µM [inhibitor, partial curve, poor fit] |  |
| O=[N+]([O-])c1ccc(Nc2cccc(F)c2)nc1 | inactive |  |
| C=CCN(c1ccc(C(=O)Nc2ccc(NC(C)=O)cc2)cc1)S(C)(=O)=O | inconclusive: 31.6 µM [inhibitor, full curve, poor fit] |  |
| COC(=O)C1=C(CS(=O)(=O)c2ccc(C)cc2C)NC(=O)NC1c1ccc(C)cc1 (stereo not drawn) | inactive |  |
| NCCSSCCN | inconclusive: 5.97 µM [inhibitor, full curve] |  |
| COc1ccc(CNC(=O)Cn2c(=O)c3cccn3c3cccnc32)cc1 | inconclusive: 100 µM [inhibitor, single point] |  |
| CC(C)CN1CCC(=O)N([C@H](CSc2ccccc2)Cc2ccccc2)CC1 | inactive |  |
| Cc1ccc(-n2c(O)c(C=Nc3ccccc3-c3n[nH]c(=S)[nH]c3=O)c3ccccc3c2=O)cc1C | inconclusive: 79.4 µM [inhibitor, partial curve, poor fit] |  |
| COCCNC(=O)CN(C(=O)CCC(=O)Nc1ccccn1)c1ccc(C)c(C)c1 | inactive |  |
